The record followed here is ChEMBL document CHEMBL4888484, “Replenishing the malaria drug discovery pipeline: Screening and hit evaluation of the MMV Hit Generation Library 1 (HGL1) against asexual blood stage Plasmodium falciparum ,using a nano luciferase reporter read-out” (2022).

Each structure is given as a SMILES string. Out of some 150,000 compounds screened, about 540 (0.36%) showed an effect of 50% or more. The list shows a part of the results.

The assay concerns Plasmodium falciparum. The assay can be described thus: Primary screen in NF54 nanoGlo assay, in single point, at 2uM, 72h; a lower Z score goes with more inhibition. The assay is classed as functional, Erythrocyte. The conditions noted are these: timepoint 72 hour.
With `Cc1cnc(CCNC(=O)c2cccn2C)n1C1CCCCC1`, the “% Inhibition” value is -3% and the Z score is 0.38.
On to `CCN(CC(=O)Nc1ccn(C)n1)C[C@H]1CCCCO1`, for which the “% Inhibition” value is reported as 6% and the Z score is -0.52.
As for `COc1ccc(Cn2nc(C3CC3)nc2[C@@H]2CCCCCN2C)cc1`, the “% Inhibition” value is given as -7% and the Z score was determined as 1.46.
For `COc1ccc(OCc2nn(CC(=O)Nc3ccccc3)c(=S)o2)cc1`, the “% Inhibition” value is listed as -45% and the Z score is recorded as 5.26.
Taken in the same sequence, the figures for `Cn1cc([C@H]2CCCN(C(=O)CCc3ccccc3Br)C2)cn1` were -16% and 1.99.
Regarding `CN(Cc1cccnc1)Cc1cnc2ncccn12`, the “% Inhibition” value was -9% and the Z score worked out at 1.22.
As for `CC(O)CC1CCCCCN1C(=O)c1cc2c(s1)CCC2` (configuration not stated), the “% Inhibition” value is -11% and the Z score was 1.24.
Regarding `CCOc1ccccc1C(=O)Nc1cccc(NC(=O)c2ccccc2OCC)n1`, the “% Inhibition” value is recorded as -2% and the Z score is on record as 0.25.
Take `Cc1ccc2cc(CN3C[C@@H](CO)[C@H](c4nc(C)no4)C3)c(O)nc2c1`: the “% Inhibition” value is on record as -12% and the Z score is 2.08.
On to `CCc1ccc([C@H]2C[C@@H](c3ccc(F)cc3)Nc3nc(N)nn32)cc1`, for which the “% Inhibition” value came out at 2% and the Z score is given as -0.2.
`CC(C)N(Cc1ccccn1)C(=O)CC(F)(F)F`: the “% Inhibition” value was -10% and the Z score is listed as 1.29.
The corresponding values for `COc1cccc(C(=O)N(Cc2c(-c3ccccc3)noc2N(C)C(C)C)C(C)C)c1` are -4% and 0.63.
As for `COC[C@](C)(CCO)NC(=O)Nc1cc(F)cc(Br)c1`, the “% Inhibition” value is -13% and the Z score is listed as 1.11.
On to `CCc1nnc(C)cc1C(=O)NCC(=O)C(C)(C)C`, for which the “% Inhibition” value is -8% and the Z score came to 1.51.
On to `CC1CC(C)CN(C(=O)C2CCN(S(=O)(=O)c3ccc4c(c3)C(C)(C)C(=O)N4C)CC2)C1` (configuration not stated), for which the “% Inhibition” value is on record as -3% and the Z score came to 0.57.
On to `O=C(C1COc2ccccc2O1)N1CCC(c2ccccc2)S(=O)(=O)CC1` (configuration not stated), for which the “% Inhibition” value is listed as -3% and the Z score is reported as 0.43.
Take `CCOC(=O)N1CCN(c2nc3cc4c(cc3cc2CN[C@H]2CCOC(C)(C)C2)CCC4)CC1`: the “% Inhibition” value is 17% and the Z score is -2.18.
Regarding `CCCN(Cc1ccsc1)S(C)(=O)=O`, the “% Inhibition” value was -9% and the Z score was 1.25.
`O=C(O)c1cncnc1N1C[C@@H]2[C@H](C1)[C@H]2C(=O)O`: the “% Inhibition” value was -1% and the Z score is given as 0.24.
On to `CC1n2c(nc3ccccc32)S(=O)(=O)C(c2ccccc2)C1(C)O` (configuration not stated), for which the “% Inhibition” value came out at 4% and the Z score is -0.51.
In the case of `Cc1cc(C(=O)Nc2ccnn2[C@@H](C)C(C)C)cc(=O)[nH]1`, the “% Inhibition” value is reported as -17% and the Z score worked out at 1.98.
Turning to `O=S1(=O)CC2CC1CN2S(=O)(=O)N1CCCC1` (configuration not stated), the “% Inhibition” value is on record as -15% and the Z score is 1.78.
Regarding `O=C(COc1ccc2c(c1)C(=O)CC2)Nc1ccon1`, the “% Inhibition” value came to 22% and the Z score was -2.84.
As for `O=C(CCO)N[C@H](c1cnc2ccccc2c1)C1CC(O)C1` (some centres not stated), the “% Inhibition” value was -7% and the Z score amounted to 1.43.
As to `CC(=O)c1sc(NC(=O)CCc2c(C)nc3c(C#N)cnn3c2C)nc1-c1ccccc1`, the “% Inhibition” value is on record as -27% and the Z score came out at 3.21.
As for `CCCn1nc(C2CC2)nc1-c1cc2ccccc2[nH]1`, the “% Inhibition” value is -8% and the Z score came out at 1.74.
Consider `Cc1cc(NC(=O)N[C@H](c2cnn(C)c2)C(C)C)cc(C)n1`, for which the “% Inhibition” value was -8% and the Z score amounted to 1.17.
As for `CCOC(=O)CCC(=O)N1CC[C@H](Oc2cc(C)nc(C)n2)C1`, the “% Inhibition” value was -9% and the Z score was found to be 1.4.
In the case of `O=S1(=O)CCC[C@H](NS(=O)(=O)CC23CCC(CC2)C3)C1`, the “% Inhibition” value came to 9% and the Z score is listed as -1.52.
Turning to `CC(C)(C)NC(=O)c1ccc(Cl)cc1F`, the “% Inhibition” value is recorded as -9% and the Z score stood at 1.31.
Turning to `CC(=O)NCc1cc(-c2cccs2)nn1C`, the “% Inhibition” value is on record as -10% and the Z score came to 1.31.
Regarding `Cc1cc(C(=O)COc2ccc(Br)cc2F)c(C)n1[C@H]1CCS(=O)(=O)C1`, the “% Inhibition” value is on record as 1% and the Z score is listed as -0.16.
The corresponding values for `COc1cccc(-c2nc3c(s2)CN(C(=O)c2ccccc2)CC3)c1` are 3% and -0.35.
In the case of `CN(C)Cc1ccccc1CN(C)Cc1ccc(N(C)C)nc1`, the “% Inhibition” value is recorded as -13% and the Z score was determined as 1.25.
With `Cc1c(C2CCCCC2)noc1NC(=O)Cc1ccco1`, the “% Inhibition” value is on record as -6% and the Z score was determined as 1.15.
Turning to `CC[C@H]1CN(C(=O)c2scnc2C)CCO1`, the “% Inhibition” value is -5% and the Z score is recorded as 0.48.
Consider `CCCNC(=O)CN1CC(C)C1c1ccccc1` (configuration not stated), for which the “% Inhibition” value was -21% and the Z score is 2.87.
`CC(=O)[C@H]1CCCCN1C(=O)c1ccc(C(N)=O)cc1`: the “% Inhibition” value is reported as -4% and the Z score was 0.54.
As to `CC(NC(=O)N1CCCC1CO)c1ccc(NC(=O)NC2CC2)cc1` (configuration not stated), the “% Inhibition” value was 4% and the Z score was -0.35.
For the molecule `c1ccc2nc(-c3nc([C@H]4CCOC4)no3)cnc2c1`, the “% Inhibition” value is -16% and the Z score came out at 1.66.
For the molecule `C[C@@H]1CN(C(=O)Nc2nc(C3CCC3)cs2)C[C@@]1(C)CN`, the “% Inhibition” value is recorded as -5% and the Z score is 0.97.
As to `Cc1nc(-c2ccc(C(=O)N[C@@H](C)Cn3cccn3)cc2)n(C)n1`, the “% Inhibition” value is on record as 2% and the Z score is recorded as -0.3.
Regarding `CC(C)c1ccsc1C(=O)NCCc1ccc(Cl)s1`, the “% Inhibition” value is reported as -3% and the Z score amounted to 0.26.
The corresponding values for `O=C(c1cccc2cc[nH]c12)N1CCC(Cc2ncc[nH]2)CC1` are -1% and 0.2.
The corresponding values for `CC(C)Cc1nc(CN2CCc3[nH]nc(-c4ccc(Cl)cc4)c3C2)no1` are -16% and 2.09.
Taken in the same sequence, the figures for `Cc1nc(CN2CC[C@H](NC(=O)c3n[nH]c4c3CCCC4)[C@@H](O)C2)cs1` were 6% and -1.04.
As to `CN(C)CCc1nnc(NC(=O)CCc2ccnn2C)s1`, the “% Inhibition” value is -9% and the Z score is listed as 1.3.
On to `Cc1nnc([C@H](C)N2CCN(C3CC3)CC2)s1`, for which the “% Inhibition” value is -3% and the Z score is listed as 0.35.
As to `Cc1ccc(C(=O)NC2CCCCCC2)cc1-n1cnc2cccnc21`, the “% Inhibition” value is recorded as -7% and the Z score was 1.11.
For the molecule `Cc1nccn1C[C@H]1CCCN(CCOc2ccccc2)C1`, the “% Inhibition” value was determined as 0% and the Z score came to 0.03.
On to `CC(C)=CCN1CC2(CCN(C(=O)Nc3ccccc3C)CC2)CC1=O`, for which the “% Inhibition” value is -12% and the Z score is reported as 2.38.
Taken in the same sequence, the figures for `Cc1nc(N[C@@H](C)Cc2cccnc2)cc(C(C)C)n1` were 20% and -2.53.
Consider `COc1cccc2c(N3CCN(Cc4ccccc4)CC3)nc(C(Cl)(Cl)Cl)nc12`, for which the “% Inhibition” value is recorded as -4% and the Z score came out at 0.53.
For the molecule `CCn1nnnc1NC(=O)NCC[C@@H]1OCCc2ccccc21`, the “% Inhibition” value is listed as -2% and the Z score is given as 0.32.
Turning to `O=C(c1cn[nH]c1)N1CCCC2(CCOCC2)C1`, the “% Inhibition” value is recorded as -8% and the Z score is on record as 1.01.
In the case of `O=C([C@H]1C[C@@H]1c1ccncc1)N1CCn2cnc(C(F)(F)F)c2C1`, the “% Inhibition” value stood at 2% and the Z score is -0.46.
